For test [1], the target named is Strep-HA-tagged NAP1 (NIH3T3) (not stated (human or mouse cDNA cloned)) (UniProt Q9QYP6). Nature of the test: co-IP; NIH3T3 cells stably expressing Strep-HA-tagged baits; anti-HA agarose; immunoblotting with anti-HA.11, anti-TBK1, anti-TANK. A general note: Immunoblotting shows a protein as a band on a membrane.
The target of test [2] is T1, Strep-HA-tagged TBK1 (NIH3T3) (murine) (UniProt Q9WUN2).
T1 sequence: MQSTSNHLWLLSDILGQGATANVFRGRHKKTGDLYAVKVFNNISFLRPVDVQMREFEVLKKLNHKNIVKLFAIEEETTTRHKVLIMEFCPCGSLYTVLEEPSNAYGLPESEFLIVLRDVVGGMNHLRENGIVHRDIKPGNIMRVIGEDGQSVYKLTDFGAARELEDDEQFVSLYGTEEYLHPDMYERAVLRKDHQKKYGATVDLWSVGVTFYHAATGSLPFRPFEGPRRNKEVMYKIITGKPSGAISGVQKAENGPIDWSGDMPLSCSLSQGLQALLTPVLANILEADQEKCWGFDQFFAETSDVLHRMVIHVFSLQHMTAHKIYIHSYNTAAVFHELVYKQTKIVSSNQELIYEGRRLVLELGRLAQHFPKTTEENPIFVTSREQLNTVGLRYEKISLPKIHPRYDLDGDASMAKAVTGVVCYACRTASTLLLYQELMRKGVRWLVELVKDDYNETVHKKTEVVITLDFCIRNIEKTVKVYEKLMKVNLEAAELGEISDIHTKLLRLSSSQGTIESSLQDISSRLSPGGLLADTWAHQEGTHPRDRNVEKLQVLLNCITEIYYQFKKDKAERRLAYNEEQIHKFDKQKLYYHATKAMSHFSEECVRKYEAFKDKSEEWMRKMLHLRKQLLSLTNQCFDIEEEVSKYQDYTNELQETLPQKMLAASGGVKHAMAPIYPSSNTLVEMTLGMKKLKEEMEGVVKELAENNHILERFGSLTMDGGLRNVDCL
The description is as above.

Protein sequences, listed by entry. Tags and fused reporters are not part of them.
UniProt Q9QYP6: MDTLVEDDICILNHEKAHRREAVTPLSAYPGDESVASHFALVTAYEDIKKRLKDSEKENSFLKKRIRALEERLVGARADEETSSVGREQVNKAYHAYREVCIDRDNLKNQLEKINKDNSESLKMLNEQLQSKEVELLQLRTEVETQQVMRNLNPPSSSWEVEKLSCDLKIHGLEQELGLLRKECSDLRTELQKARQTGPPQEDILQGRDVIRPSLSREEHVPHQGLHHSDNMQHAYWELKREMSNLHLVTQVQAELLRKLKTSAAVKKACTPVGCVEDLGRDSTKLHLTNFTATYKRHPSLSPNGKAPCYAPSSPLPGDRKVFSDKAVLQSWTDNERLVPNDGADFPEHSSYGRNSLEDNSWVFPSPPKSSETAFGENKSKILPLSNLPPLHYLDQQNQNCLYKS
UniProt A2A9T0: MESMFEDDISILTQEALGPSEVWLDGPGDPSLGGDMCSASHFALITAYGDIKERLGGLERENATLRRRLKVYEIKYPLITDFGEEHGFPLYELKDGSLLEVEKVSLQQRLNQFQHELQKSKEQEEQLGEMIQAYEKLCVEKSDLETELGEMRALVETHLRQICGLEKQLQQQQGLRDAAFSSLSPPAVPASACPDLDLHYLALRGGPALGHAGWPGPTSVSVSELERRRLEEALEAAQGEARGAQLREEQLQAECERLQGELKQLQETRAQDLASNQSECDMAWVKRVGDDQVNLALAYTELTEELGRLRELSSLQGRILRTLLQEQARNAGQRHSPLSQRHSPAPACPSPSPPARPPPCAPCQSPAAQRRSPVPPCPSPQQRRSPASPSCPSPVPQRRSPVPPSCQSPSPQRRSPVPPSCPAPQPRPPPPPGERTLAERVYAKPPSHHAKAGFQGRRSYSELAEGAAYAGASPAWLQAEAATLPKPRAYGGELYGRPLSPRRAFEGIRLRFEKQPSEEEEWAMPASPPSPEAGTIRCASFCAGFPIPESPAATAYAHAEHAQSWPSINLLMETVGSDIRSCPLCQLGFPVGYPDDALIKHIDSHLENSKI

The target of test [3] is Strep-HA-tagged Sintbad (NIH3T3) (UniProt A2A9T0). The test is described as above.
Test [4] deals with T2, Strep-HA fusion of TBK1 E706K (reconstituted MEFs) (murine) (UniProt Q9WUN2).
T2 sequence: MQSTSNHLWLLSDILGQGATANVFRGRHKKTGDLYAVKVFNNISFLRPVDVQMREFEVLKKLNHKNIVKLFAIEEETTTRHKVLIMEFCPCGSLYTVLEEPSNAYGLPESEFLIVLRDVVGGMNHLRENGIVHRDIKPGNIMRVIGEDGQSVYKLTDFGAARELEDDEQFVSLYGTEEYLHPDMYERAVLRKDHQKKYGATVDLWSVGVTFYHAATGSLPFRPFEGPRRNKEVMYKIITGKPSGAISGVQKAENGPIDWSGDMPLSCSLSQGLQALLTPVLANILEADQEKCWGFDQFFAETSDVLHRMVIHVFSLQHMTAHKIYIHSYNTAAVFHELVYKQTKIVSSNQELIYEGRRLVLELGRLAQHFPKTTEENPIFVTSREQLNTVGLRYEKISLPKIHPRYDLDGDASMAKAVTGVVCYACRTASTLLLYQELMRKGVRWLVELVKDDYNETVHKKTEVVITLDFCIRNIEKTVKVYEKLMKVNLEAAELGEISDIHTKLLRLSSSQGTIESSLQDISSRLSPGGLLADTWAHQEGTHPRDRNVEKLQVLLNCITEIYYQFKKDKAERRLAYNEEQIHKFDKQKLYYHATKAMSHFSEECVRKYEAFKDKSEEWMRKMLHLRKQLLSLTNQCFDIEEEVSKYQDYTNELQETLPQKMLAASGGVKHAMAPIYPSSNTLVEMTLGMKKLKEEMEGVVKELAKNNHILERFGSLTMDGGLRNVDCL
Nature of the test: co-IP; TBK1/IKK-i-deficient MEFs reconstituted with Strep-HA fusions of TBK1 wt or mutants; anti-HA agarose; immunoblotting with anti-HA.11, anti-TBK1, anti-TANK.

Test [5] has as its target T3, Strep-HA fusion of TBK1 wt (reconstituted MEFs) (murine) (UniProt Q9WUN2).
T3 sequence: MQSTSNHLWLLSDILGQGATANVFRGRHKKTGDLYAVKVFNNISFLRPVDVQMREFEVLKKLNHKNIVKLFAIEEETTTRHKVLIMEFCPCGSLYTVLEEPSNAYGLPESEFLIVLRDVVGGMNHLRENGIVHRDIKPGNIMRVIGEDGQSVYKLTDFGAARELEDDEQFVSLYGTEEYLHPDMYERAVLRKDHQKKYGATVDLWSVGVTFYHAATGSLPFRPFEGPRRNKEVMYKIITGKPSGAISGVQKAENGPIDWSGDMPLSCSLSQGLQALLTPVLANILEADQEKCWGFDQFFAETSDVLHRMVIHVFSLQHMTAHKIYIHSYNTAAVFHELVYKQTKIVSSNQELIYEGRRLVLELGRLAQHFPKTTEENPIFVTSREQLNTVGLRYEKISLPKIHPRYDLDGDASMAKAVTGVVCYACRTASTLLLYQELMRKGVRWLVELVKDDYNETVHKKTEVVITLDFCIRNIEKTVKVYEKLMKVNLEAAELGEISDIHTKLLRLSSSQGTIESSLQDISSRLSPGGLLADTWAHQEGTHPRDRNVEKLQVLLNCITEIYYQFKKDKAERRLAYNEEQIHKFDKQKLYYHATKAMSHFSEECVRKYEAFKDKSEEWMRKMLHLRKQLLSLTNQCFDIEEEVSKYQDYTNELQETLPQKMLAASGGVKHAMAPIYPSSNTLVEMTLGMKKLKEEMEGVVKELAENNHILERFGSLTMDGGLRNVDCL
Described as above.

For test [6], the target named is T4, Strep-HA fusion of TBK1 L693A (reconstituted MEFs) (murine) (UniProt Q9WUN2).
T4 sequence: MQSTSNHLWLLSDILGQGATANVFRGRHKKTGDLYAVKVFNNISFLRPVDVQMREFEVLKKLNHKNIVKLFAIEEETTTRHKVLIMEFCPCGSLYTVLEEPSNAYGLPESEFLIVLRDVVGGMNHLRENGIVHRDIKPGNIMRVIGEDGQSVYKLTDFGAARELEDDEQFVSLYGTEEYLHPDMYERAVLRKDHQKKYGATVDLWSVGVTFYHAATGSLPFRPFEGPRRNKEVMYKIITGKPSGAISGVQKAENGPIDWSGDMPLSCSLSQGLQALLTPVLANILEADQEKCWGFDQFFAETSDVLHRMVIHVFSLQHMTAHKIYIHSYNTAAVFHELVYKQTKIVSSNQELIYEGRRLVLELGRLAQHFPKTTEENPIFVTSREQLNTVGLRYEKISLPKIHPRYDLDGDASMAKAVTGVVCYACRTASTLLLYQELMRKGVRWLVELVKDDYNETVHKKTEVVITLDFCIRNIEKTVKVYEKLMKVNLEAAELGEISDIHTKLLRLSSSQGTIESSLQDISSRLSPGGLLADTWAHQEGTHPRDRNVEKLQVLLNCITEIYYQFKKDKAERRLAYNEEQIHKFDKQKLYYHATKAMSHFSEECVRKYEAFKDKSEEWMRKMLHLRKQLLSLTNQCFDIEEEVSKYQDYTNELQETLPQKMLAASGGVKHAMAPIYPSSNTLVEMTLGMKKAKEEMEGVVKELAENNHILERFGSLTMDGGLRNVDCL
Described as above.

For test [7], the target named is T5, Strep-HA fusion of TBK1 K694E (reconstituted MEFs) (murine) (UniProt Q9WUN2).
T5 sequence: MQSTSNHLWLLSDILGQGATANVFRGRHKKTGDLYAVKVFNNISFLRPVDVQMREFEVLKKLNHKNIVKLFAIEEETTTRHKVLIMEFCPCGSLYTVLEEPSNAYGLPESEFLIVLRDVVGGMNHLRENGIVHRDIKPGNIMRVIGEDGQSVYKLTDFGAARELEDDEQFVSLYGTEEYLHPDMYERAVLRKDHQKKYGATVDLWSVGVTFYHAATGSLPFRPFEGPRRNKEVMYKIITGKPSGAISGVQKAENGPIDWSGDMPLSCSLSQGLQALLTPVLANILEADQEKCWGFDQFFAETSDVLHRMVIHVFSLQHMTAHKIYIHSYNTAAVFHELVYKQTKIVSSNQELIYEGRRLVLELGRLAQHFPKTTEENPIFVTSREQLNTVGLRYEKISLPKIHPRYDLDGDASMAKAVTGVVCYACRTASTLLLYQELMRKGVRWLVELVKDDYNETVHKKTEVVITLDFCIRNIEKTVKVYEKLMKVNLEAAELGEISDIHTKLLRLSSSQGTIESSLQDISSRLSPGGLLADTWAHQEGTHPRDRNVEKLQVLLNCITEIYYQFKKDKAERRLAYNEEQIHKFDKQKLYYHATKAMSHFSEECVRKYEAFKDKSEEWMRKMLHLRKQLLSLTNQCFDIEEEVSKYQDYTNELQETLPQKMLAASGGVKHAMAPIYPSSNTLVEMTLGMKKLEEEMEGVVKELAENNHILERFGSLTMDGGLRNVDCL
Described as above.

Consider two molecules from PMC3169550.

These are yes or no findings as the source states them, for the method shown. Binding seen in cells or lysates may run through a third protein. Some entries that bind do so weakly or less than the wild type. For some of these results: Sequences can lack the tags named with a protein.

B1: endogenous TANK (NIH3T3) (protein, UniProt P70347 1-448)
chain: MSLKRHSLRRNACHLETRAGIPTILYSDATGQRGMDKNIGEQLNRAYEAFRQACMDRDSAVRELQQKQTENYEQRIREQQEQLSFQQNLIDRLKSQLLLVDSSRDNSYGYVPLLEDSDRRKNNLTLDEPHDKVKLGTLRDKQSKVRRQEVSSGKESAKGLNIPLHHERDNIEKTFWDLKEEFHRICLLAKAQKDHLSKLNIPDIATDTQCSVPIQCTDKTEKQEALFKPQAKDDINRGMSCVTAVTPRGLGRDEEDTSFESLSKFNVKFPPMDNDSIFLHSTPEAPSILAPATPETVCQDRFNMEVRDNPGNFVKTEETLFEIQGIDPITSAIQNLKTTDKTNPSNLRATCLPAGDHNVFYVNTFPLQDPPDAPFPSLDSPGKAVRGPQQPFWKPFLNQDTDLVVPSDSDSELLKPLVCEFCQELFPPSITSRGDFLRHLNTHFNGET
For B1, the binding result is listed as “no binding” in test [1], “binds” in test [2] and “no binding” in test [3].

B2: endogenous TANK (MEFs) (protein, UniProt P70347 1-448)
chain: MSLKRHSLRRNACHLETRAGIPTILYSDATGQRGMDKNIGEQLNRAYEAFRQACMDRDSAVRELQQKQTENYEQRIREQQEQLSFQQNLIDRLKSQLLLVDSSRDNSYGYVPLLEDSDRRKNNLTLDEPHDKVKLGTLRDKQSKVRRQEVSSGKESAKGLNIPLHHERDNIEKTFWDLKEEFHRICLLAKAQKDHLSKLNIPDIATDTQCSVPIQCTDKTEKQEALFKPQAKDDINRGMSCVTAVTPRGLGRDEEDTSFESLSKFNVKFPPMDNDSIFLHSTPEAPSILAPATPETVCQDRFNMEVRDNPGNFVKTEETLFEIQGIDPITSAIQNLKTTDKTNPSNLRATCLPAGDHNVFYVNTFPLQDPPDAPFPSLDSPGKAVRGPQQPFWKPFLNQDTDLVVPSDSDSELLKPLVCEFCQELFPPSITSRGDFLRHLNTHFNGET
In the case of B2, the binding entry is listed as “binds” in test [4], “binds” in test [5], “no binding” in test [6] and “no binding” in test [7].
